According to PubChem BioAssay (NCATS):
Inconclusive results, whose numbers are uncertain, are shown with a selection of clear calls. Potencies beside an inconclusive call are fits to weak or partial responses and may not hold up. Activity calls are given as the source filed them. The call rests on the fitted dose curve; in most records, active means well fitted cell-killing curve with a large enough effect; inconclusive means small, poorly fitted or top-dose-only effect, or effect the other way; inactive means flat fitted curve, though single readings scatter.

The compounds below were run on CAOV3 (assay: Primary qHTS to identify gynecologic anti-cancer compounds using libraries of approved drugs and bioactive compounds (AID 1345084; further: nearly all actives have a fitted effect of over 55% in size)). Conditions: Gynecologic cancer cell panel viability, ATPlite luminescence, 48 h; activity change, negative = cytotoxicity: at 57.5 µM (top of the series).
Summary of the method: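 Cell viability after 48 h drug treatment, ATPlite luminescence readout; five doses.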
On the % scale 0 is the no-effect control and ±100 the full control effect; potency means the concentration at half of the fitted maximal effect; tags describe the fitted curve by direction and shape.

Row | SMILES | Potency | activity change, negative = cytotoxicity
1 | O=C(NCCCn1ccnc1)c1cc(-c2ccco2)on1 | inconclusive: 0.708 µM [rising, full curve, poor fit] | 
2 | COC1(CC(C)C)NC(=O)C(O)(Cc2ccccc2)NC1=O (centres undefined) | inconclusive: 15.8 µM [cytotoxic, single point] | 
3 | C=C1CCC2C(C)(C)CCCC2(C)C1CC/C(C)=C\CO (centres undefined) |  | inactive: 5.25%
4 | CN(C)CC#CCCC(=O)C(O)(c1ccccc1)C1CCC1 (centres undefined) |  | inactive: 27.3%
5 | NC(=O)c1cccc(-c2cc(OC(=O)NC3CCCCC3)ccc2O)c1 |  | inactive: 8.18%
6 | CC(NCCCc1cccc(C(F)(F)F)c1)c1cccc2ccccc12 (centres undefined) |  | inactive: -6.38% [at 25.3 µM]
7 | COc1ccc([C@H](Cc2ccncc2)c2ccccc2)cc1OC1CCCC1 | inconclusive: 39.8 µM [rising, single point] | 
8 | C=C1CC2C(C)(CCC(=O)O)C(C(C)(C)O)CCC2(C)C2C(=O)OC(C)(C(=O)OC)C(=O)C12C (centres undefined) |  | inactive: -33% [at 25.3 µM]
9 | CC(O)(CC(=O)O)CC(=O)OCc1ccc(O[C@@H]2O[C@H](CO)[C@@H](O)[C@H](O)[C@H]2O)cc1 (some centres undefined) | inconclusive: 11.2 µM [cytotoxic, single point] | 
10 | CCCCc1ccc(NS(=O)(=O)c2ccc(F)cc2)cc1 |  | inactive: 7.63%
11 | CN1C(=O)CC(c2ccccc2)C1=O (centres undefined) |  | inactive: 0.625%
12 | C/C=C/c1cc(OC)c2c(c1)[C@@H](C)[C@@H](c1ccc(O)c(OC)c1)O2 |  | inactive: -7.36% [at 38.5 µM]
13 | CC(C)O[C@@H]1O[C@H](CO)[C@@H](O)[C@H](O)[C@H]1O |  | inactive: 11.5%
14 | COc1ccc(NC(=O)c2ccc(-c3ccc(-c4nnc(C)o4)cc3C)cc2)cc1N1CCN(C)CC1 | inconclusive: 35.5 µM [cytotoxic, single point] | 
15 | OC[C@H]1O[C@@H](OCCc2ccccc2)[C@H](O[C@@H]2OC[C@@H](O)[C@H](O)[C@H]2O)[C@@H](O)[C@@H]1O | inconclusive: 0.447 µM [cytotoxic, single point] | 
16 | O=c1[nH]ccc2nc(-c3ccc(CN4CCC(c5nc(-c6ccccn6)n[nH]5)CC4)cc3)c(-c3ccccc3)cc12 |  | inactive: 1.59%
17 | O=C(NC/C=C/CN1CCN(c2cccc(Cl)c2Cl)CC1)c1ccc(-c2ccccn2)cc1 |  | inactive: 19.4%
18 | CC(=O)OC1C(OC(=O)c2ccccc2)C2C(C)(C)CCC(OC(C)=O)C2(C)C23CCC(C)(C2)C(=O)CC13 (centres undefined) |  | inactive: -4.29% [at 25.3 µM]
19 | CC(=O)[C@H]1CC[C@H]2[C@@H]3C=CC4=CC(=O)CC[C@@]4(C)[C@@H]3CC[C@]12C | inconclusive: 39.8 µM [rising, single point] | 
20 | CC(=O)O[C@H]1[C@@]2(O)C[C@H](C)[C@H](OC(=O)c3ccccc3)[C@@H]2[C@@H](OC(=O)CO)[C@]2(OC(C)=O)C[C@H]3C(=O)C(C)(C)C[C@@H]3[C@@]1(C)[C@H]2OC(C)=O |  | inactive: -3.81% [at 25.3 µM]

Row | SMILES | Potency | activity change, negative = cytotoxicity
21 | COC(=O)[C@H](Cc1ccc([N+](=O)[O-])cc1)NC(=O)c1cccc2ccccc12 | inconclusive: 39.8 µM [cytotoxic, single point] | 
22 | COc1ccc(C(=O)Nc2c(Cl)cncc2Cl)cc1OC1CCCC1 | inconclusive: 39.8 µM [rising, single point] | 
23 | C=CC(C)(C)c1[nH]c2ccccc2c1C[C@@H]1NC(=O)[C@H](C)NC1=O | inconclusive: 3.98 µM [cytotoxic, single point] | 
24 | CC(C)[C@@H](c1ccc(C(F)(F)F)cc1CN(Cc1cc(C(F)(F)F)cc(C(F)(F)F)c1)c1nnn(C)n1)N1CCC(C(=O)O)CC1 | inconclusive: 25.1 µM [rising, single point] | 
25 | C=CC(C)(O)CC[C@H]1C(=C)CCC2[C@](C)(C(=O)O)CCC[C@@]21C (some centres undefined) |  | inactive: 4.4% [at 38.5 µM]
26 | O=C(O)[C@H]1Cc2ccccc2CN1 |  | inactive: 20.2% [at 6.55 µM]
27 | CNc1nc(C)nc(N[C@H]2CCC[C@@H](C(=O)NCc3ccc(C#N)cc3C(F)(F)F)C2)n1 |  | inactive: 6.83%
28 | O=[N+]([O-])c1ccc(Oc2ccc3c(c2)CCC(c2ccccc2)O3)nc1 (centres undefined) |  | inactive: -1.45%
29 | CN(CCCOc1ccc(Cc2ccccc2)cc1)CCC(=O)O |  | inactive: -9.77%
30 | C=C1CCC2C(C)(CO[C@@H]3O[C@H](CO)[C@@H](O)[C@H](O)[C@H]3O)C(O)CCC2(C)C1C(=O)CC1=CCOC1=O (some centres undefined) |  | inactive: 6.97% [at 25.3 µM]
31 | CC1OC(OC2C(O)COC(O[C@@H]3[C@@H](O)[C@@H](O)[C@H](OC4C(OC(=O)[C@]56CCC(C)(C)CC5C5=CCC7[C@@]8(C)C[C@H](O)[C@H](OC9OC(CO)C(O)C(O)C9O)[C@@](C)(CO)C8[C@H](O)C[C@@]7(C)[C@]5(C)CC6)OCC(O)C4O)O[C@H]3C)C2O)C(O)C(O)C1O (some centres undefined) | inconclusive: 0.316 µM [cytotoxic, single point] | 
32 | O=C(NC[C@H](O)CN1CCc2ccccc2C1)c1ccnc(NC2CCC2)c1 |  | inactive: -3.61%
33 | COc1cc(C(=O)OC(COCCC(C)C)CN2CCOCC2)cc(OC)c1OC (centres undefined) | inconclusive: 20 µM [rising, partial curve, poor fit] | 
34 | CN1CCc2cc3c(cc2C(=O)Cc2cc4c(cc2C1)OCO4)OCO3 |  | inactive: -0.0161% [at 38.5 µM]
35 | CN1C(=O)c2ccccc2NC(=O)[C@]12O[C@@H]2c1cccc(O)c1 |  | inactive: -5.11%
36 | CN(C)c1ccc(NC(=O)NS(=O)(=O)c2ccc(Cl)cc2)cc1 | inconclusive: 17.8 µM [cytotoxic, partial curve, poor fit] | 
37 | CC(=O)[C@@]1(O)CC[C@H]2[C@@H]3CCC4=CC(=O)CC[C@]4(C)[C@H]3CC[C@@]21C |  | inactive: 33.7%
38 | O=C(NC1CCN(CCc2c[nH]c3ccccc23)CC1)c1ccccc1 |  | inactive: 6.44%
39 | O=C(Nc1cccnc1)c1cc(-c2ccnc(F)c2)ccc1OCc1ccccc1 | inconclusive: 31.6 µM [rising, partial curve, poor fit] | 
